Measurements: PubChem BioAssay AID624417 (National Center for Advancing Translational Sciences (NCATS), 2012)
The whole screen tested about 410,000 compounds, of which about 6,400 (1.6%) were called active. The shares of active, inactive and inconclusive entries below differ from those in the screen. Calls follow the shape of the dose curve; as a rule, active = well fitted inhibition curve with a large enough effect; inconclusive = small, poorly fitted or top-dose-only effect; inactive = no such curve, though single readings can be large or run the other way. No potency is given beside an inconclusive call; the fits are too rough.

Molecular target: Glucagon-like peptide 1 receptor (Homo sapiens) (UniProt P43220)
Chain of UniProt P43220 (P43220 whole entry, looked up): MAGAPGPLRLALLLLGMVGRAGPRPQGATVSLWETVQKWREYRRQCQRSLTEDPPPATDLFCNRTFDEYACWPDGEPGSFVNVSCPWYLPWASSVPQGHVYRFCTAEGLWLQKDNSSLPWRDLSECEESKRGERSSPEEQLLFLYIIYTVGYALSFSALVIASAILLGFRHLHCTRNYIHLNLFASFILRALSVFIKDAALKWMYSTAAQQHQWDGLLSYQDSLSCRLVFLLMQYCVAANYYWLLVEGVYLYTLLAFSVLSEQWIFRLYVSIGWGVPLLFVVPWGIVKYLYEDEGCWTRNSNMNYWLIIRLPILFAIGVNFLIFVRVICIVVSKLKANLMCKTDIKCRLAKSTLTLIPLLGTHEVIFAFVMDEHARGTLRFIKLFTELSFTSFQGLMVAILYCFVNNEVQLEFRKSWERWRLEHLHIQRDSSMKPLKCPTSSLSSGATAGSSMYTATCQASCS
Assay: qHTS of GLP-1 Receptor Inverse Agonists (Inhibition Mode); also: nearly all actives have a fitted effect of over 55% in size
Conditions: HEK293 GLP-1R CRE-luciferase, luminescence, 24 h, GLP-1R form is constitutively active; activity change, negative = inhibition: at 38.3 µM (top of the series) unless noted
Method in brief: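 Assay principle: reduced luminescence from a cAMP-responsive reporter in HEK293 cells co-expressing a constitutively active GLP-1R. Conditions: 24 hr compound incubation, 37 deg C, 5% CO2.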
% is scaled to controls: 0 for no effect and ±100 for the full control effect; potency is read from the fitted curve at half-maximal effect; tags tell the direction and shape of the fitted curve.

Structure (SMILES)	Potency	activity change, negative = inhibition
Cc1cc(C)c2sc(N(CCCN(C)C)C(=O)c3ccc(Br)s3)nc2c1	inconclusive [inhibitor, partial curve, poor fit]	–
CC(=O)N1CCc2cc(Br)cc(S(=O)(=O)N3CCN(c4cccc(C(F)(F)F)c4)CC3)c21	–	inactive: 3.47%
COc1ccccc1CCNC(=O)C(=O)NCC1OCCN1S(=O)(=O)c1ccc([N+](=O)[O-])cc1 (configuration not stated)	inconclusive [inhibitor, full curve]	–
COc1cc(C(CC(=O)NCc2ccc(F)cc2)N2Cc3ccccc3C2=O)cc(OC)c1OC (configuration not stated)	–	inactive: 8.82%
O=C(CCCn1c(SCc2ccccc2F)nc2ccccc2c1=O)NCC1CCCO1 (configuration not stated)	inconclusive [inhibitor, partial curve, poor fit]	–
Cc1ccc([C@H]2C(C(=O)O)=CC[C@@H](c3ccc(Cl)cc3)N2S(=O)(=O)c2ccc(C)cc2)cc1	inconclusive [inhibitor, partial curve, poor fit]	–
CC1(C(=O)Nc2ccc3[nH]ncc3c2)CCN1C(=O)C1(c2ccccc2)CC1 (configuration not stated)	inconclusive [inhibitor, single point]	–
COc1ccc(NC(=S)NC(=O)C2CCCCC2)cc1	–	inactive: 18.5%
COc1ccccc1CNC(=O)C1CCCN(c2nc3ccccc3n3cccc23)C1 (configuration not stated)	inconclusive [inhibitor, single point]	–
Cc1ccccc1CCN1CCCC(CN(C)C(=O)C(=O)c2ccco2)C1 (configuration not stated)	inconclusive [inhibitor, partial curve, poor fit]	–
O=C(Nc1nccs1)c1ccc2ccccc2n1	inconclusive [inhibitor, single point]	–
CCOC(=O)[C@]12CCCC=C1N(CCC1=CCCCC1)C(=O)[C@H](CC(=O)N1CCOCC1)C2	–	inactive: -8.43%
O=C(C1CC1)N1CCc2cc(Br)cc(S(=O)(=O)N3CCN(c4cccc(C(F)(F)F)c4)CC3)c21	–	inactive: 0.428%
CC(C)CN(CC(C)C)S(=O)(=O)N1CCC(C(=O)N2CCc3ccccc3C2)CC1	inconclusive [inhibitor, single point]	–
Nc1nnc(CC(=O)N/N=C/c2cc([N+](=O)[O-])cc(Br)c2O)s1	–	inactive: 0%
Cc1ccc(-c2cc3ccccc3nc2N2CCOCC2)cc1	inconclusive [inhibitor, full curve, poor fit]	–
O=C(CN1C(=O)NC2(CCCCCC2)C1=O)c1ccc(OC(F)F)cc1OC(F)F	inconclusive [inhibitor, single point]	–
COCCCNC(=S)Nc1c(C)cc(C)cc1C	–	inactive: 7.2%
NNc1nc2cccnc2n(CCNc2ncc(C(F)(F)F)cc2Cl)c1=O	–	inactive: 45.9%
Cc1ccc2c(c1)c(N=NC(N)=S)c(O)n2Cc1ccccc1	–	inactive: -3.77%
O=S(=O)(Nc1ccc(Br)cc1)c1cccc(NS(=O)(=O)c2cccs2)c1	inconclusive [inhibitor, single point]	–

Structure (SMILES)	Potency	activity change, negative = inhibition
Cc1cc(C)c2cc(CNC3CCCC3)c(Cl)nc2c1	inconclusive [inhibitor, single point]	–
CC1(C)CC(=O)c2cc3c(nc2C1)CC(C)(C)CC3=O	inconclusive [inhibitor, single point]	–
O=C(c1cccc(S(=O)(=O)N2CCN(c3ccccc3)CC2)c1)N1CCCCCCC1	inconclusive [inhibitor, single point]	–
CN1CCN(c2nc(-c3ccco3)cc(C(F)(F)F)n2)CC1	–	inactive: 0%
COc1cc2c(cc1OC)/C(=C/c1ccc(Br)cc1)C(=O)OC2	active: 11.2 µM	–
COc1ccccc1C(CNC(=O)CNC(=O)c1ccc(C)c(C)c1)N1CCCC1 (configuration not stated)	inconclusive [inhibitor, single point]	–
O=C(CN(Cc1ccco1)C(=O)c1ccc([N+](=O)[O-])cc1)Nc1ccccc1C(F)(F)F	–	inactive: -6.23%
CN(CC(=O)Nc1ccc(Cl)cc1)C(=O)c1cccc(S(=O)(=O)N2CCN(Cc3ccccc3)CC2)c1	inconclusive [inhibitor, single point]	–
Cc1ccc(C(C)(C)C)c(OCCCn2ccnc2)c1	inconclusive [inhibitor, single point]	–
CC(C)C[C@H](NC(=O)c1nc[nH]c1C(=O)N[C@@H](CC(C)C)C(=O)OC(C)(C)C)C(=O)OCc1ccccc1	inconclusive [inhibitor, partial curve, poor fit]	–
CCc1nc(N)nc(N)c1-c1ccc(N(C)Cc2ccccc2)c([N+](=O)[O-])c1	inconclusive [inhibitor, full curve, poor fit]	–
CC1CCN(C(=O)CSc2nc(-c3ccccc3)no2)CC1	–	inactive: -16.6%
O=C(CNC(c1ccccc1)c1ccccc1)Nc1c(F)cccc1F	inconclusive [inhibitor, partial curve, poor fit]	–
O=C(NCCc1c[nH]c2ccccc12)C(=O)Nc1cc2c3c(c1)CC(=O)N3CCC2	inconclusive [inhibitor, single point]	–
COc1ccc(-c2cn(-c3ccc(C)cc3)c(=O)n2CC(=O)Nc2cccc(F)c2)cc1	inconclusive [inhibitor, partial curve, poor fit]	–
COc1cc(C(=O)N2CCC(c3nc4ccccc4o3)CC2)cc(OC)c1OC	–	inactive: 15.8%
Cc1c(NS(=O)(=O)c2ccccc2)cc(C(C)C)c(O)c1S(=O)(=O)c1ccc(Cl)cc1	inconclusive [inhibitor, partial curve, poor fit]	–
C=CCOC(=O)C1=C(C)NC(SCC(=O)Nc2nccs2)=C(C#N)C1c1ccc(Cl)cc1 (configuration not stated)	inconclusive [inhibitor, partial curve, poor fit]	–
Cc1nc(/C(N)=N/OC(=O)c2c(-c3ccccc3Cl)noc2C)cs1	inconclusive [inhibitor, full curve, poor fit]	–
Cc1ccccc1C(=O)Nc1nnc(S(=O)(=O)N2c3ccccc3CC2C)s1 (configuration not stated)	active: 11.2 µM	–
CC#CC[N+](C)(C)CCCCCCCCCC	inconclusive [inhibitor, partial curve, poor fit]	–
